Molecules are shown by their SMILES. Out of some 150,000 compounds screened, about 540 (0.36%) showed an effect of 50% or more. The list shows a part of the results.

The assay has as its system Plasmodium falciparum. The assay can be described thus: Primary screen in NF54 nanoGlo assay, in single point, at 2uM, 72h; a lower Z score goes with more inhibition. Type of assay: functional, Erythrocyte. The note with it: timepoint 72 hour.
Turning to `CC(=O)Nc1nc(C(=O)N[C@@](C)(CO)C2CCCCC2)cs1`, the “% Inhibition” value is recorded as -5% and the Z score was found to be 0.98.
In the same order, the values of `Brc1cnc2c(N3CC[C@]4(CCOC4)C3)ccnc2c1` are 7% and -0.75.
In the same order, the values of `Cn1cc(S(=O)(=O)N2CCOc3c2cccc3C(F)(F)F)cn1` are -3% and 0.65.
In the same order, the values of `Cc1nonc1CC(=O)NCCc1cccc(Br)c1C` are 1% and -0.2.
With `C[C@H](NCC(=O)NC(=O)NC1CC1)c1ccc(F)c(Cl)c1`, the “% Inhibition” value is given as -2% and the Z score is 0.2.
Consider `Cc1nc(CN2CCC(c3ncon3)CC2)c2ccccn12`, for which the “% Inhibition” value is listed as -10% and the Z score stood at 1.97.
Consider `O=C(CS(=O)(=O)C1CC1)N1CCc2ccsc2C1`, for which the “% Inhibition” value is -4% and the Z score was found to be 0.64.
For the molecule `CS(=O)(=O)[C@@H]1C[C@@]1(C#N)COc1ccc(F)cc1F`, the “% Inhibition” value was -1% and the Z score is listed as 0.28.
Regarding `Cc1cc(C)cc(NC(N)=NC2CC2)c1`, the “% Inhibition” value was -3% and the Z score was 0.35.
In the same order, the values of `C[C@H](NC(=O)c1cnc(Cc2c(Cl)cccc2Cl)nc1O)C1CC1` are -1% and 0.17.
As for `COCc1nc2ccccc2c(C)c1C(=O)OCC(=O)NCC1(N2CCOCC2)CCCCC1`, the “% Inhibition” value is -7% and the Z score is on record as 1.02.
Consider `Cc1cccc(C(=O)N2CCC[C@H](C(=O)N3CCN(C)CC3)C2)c1C`, for which the “% Inhibition” value is listed as -11% and the Z score came to 1.02.
For the molecule `O=C(N[C@@H]1c2ccccc2C[C@H]1O)c1cnc(C2CC2)[nH]c1=O`, the “% Inhibition” value is recorded as -8% and the Z score was determined as 1.09.
For the molecule `Cc1cc(NC(=O)C(=O)NCC[C@H](O)c2ccco2)no1`, the “% Inhibition” value was -11% and the Z score came out at 1.54.
As to `CCOc1ccccc1C(=O)N[C@H]1CCN(c2cc(-c3ccc(Cl)cc3)n[nH]2)C1`, the “% Inhibition” value is -16% and the Z score is on record as 1.63.
Consider `CC(=O)N1CCCN(S(=O)(=O)c2cccs2)CC1`, for which the “% Inhibition” value was -12% and the Z score was found to be 2.3.
Take `COCCN(Cc1ccc(C)s1)C[C@H](C)O`: the “% Inhibition” value is -6% and the Z score turned out to be 1.09.
With `O=C1COc2ccccc2N1CCc1nc(C2CC2)n[nH]1`, the “% Inhibition” value is listed as -8% and the Z score was 1.28.
The matching figures for `Cc1cc(C(=O)N2C[C@@H]3[C@H]4CC[C@H](CC4)[C@@H]3C2)c2c(C)noc2n1`: 2% and -0.34.
Consider `COc1ccccc1CCNC(=O)[C@H]1CCCN(c2ccc(=O)n(C)n2)C1`, for which the “% Inhibition” value is -15% and the Z score came to 2.85.
The matching figures for `COc1ccc(CCc2nnc(NC(=O)C[C@H](C)c3ccccc3)s2)cc1`: -10% and 1.67.
With `CN(Cc1nc2c(F)cccc2[nH]1)C[C@H]1CCS(=O)(=O)C1`, the “% Inhibition” value is -8% and the Z score worked out at 0.69.
For the molecule `CC(C)c1nn(C)cc1CNCCc1cccc2cccnc12`, the “% Inhibition” value was -3% and the Z score was determined as 0.6.
Regarding `CCn1c(CN2CCC(CO)(CCCc3ccccc3)CC2)nc2ccccc21`, the “% Inhibition” value is listed as -15% and the Z score was 1.34.
Consider `CC(=O)Nc1nc(CN2CCc3ccccc3C2)cs1`, for which the “% Inhibition” value is on record as -5% and the Z score is 0.45.
`Cc1nc2cc(NS(C)(=O)=O)cc(C(=O)N(C)Cc3cccs3)c2n1Cc1ccccc1`: the “% Inhibition” value is reported as -14% and the Z score is listed as 1.81.
`Cc1oc(-c2cccs2)nc1-c1nccn1[C@@H]1COC2(CCCC2)C1`: the “% Inhibition” value is on record as -5% and the Z score was determined as 0.55.
As for `O=C(Nc1ccn2nccc2c1)c1ccc(Oc2ccccc2)cc1`, the “% Inhibition” value was -5% and the Z score came out at 0.72.
`Cc1nc(CNC(=O)Nc2ccncc2)cs1`: the “% Inhibition” value worked out at 4% and the Z score is recorded as -0.7.
For `N#CCCn1ccnc1C(=O)c1cccnc1`, the “% Inhibition” value was -18% and the Z score stood at 1.82.
In the same order, the values of `CC(C)(C)NC(=O)CN1C(=O)NC(C)(C)C1=O` are -3% and 0.42.
Turning to `CC(C)CC(=O)NC[C@H]1CCC(=O)N(Cc2ccccc2)CC1`, the “% Inhibition” value was -9% and the Z score amounted to 1.08.
In the same order, the values of `CN(C)S(=O)(=O)c1ccc(N2CCCCC2)c(C(=O)NCCCN2CCCCC2)c1` are -7% and 1.34.
`COc1cccc(C2=NS(=O)(=O)N(C)C(C(=O)N3CCCCC3)=C2)c1`: the “% Inhibition” value is -6% and the Z score is on record as 1.12.
Turning to `Cc1ccc(NC(=O)c2c(C)nc3sc(C(=O)NCc4ccccc4)c(N)c3c2-c2ccccc2Cl)c(C)c1`, the “% Inhibition” value turned out to be 90% and the Z score is recorded as -8.85.
Regarding `CCN1CCN(Cc2cccn2-c2ccc(Cl)cn2)CCC1=O`, the “% Inhibition” value turned out to be 1% and the Z score is -0.13.
The matching figures for `CCOc1cccc(COC(=O)c2cncc(C)c2)n1`: -14% and 1.44.
The matching figures for `CC(C)(C)OC(=O)[C@@H]1Cn2c(n[nH]c2=O)CN1`: -8% and 1.52.
Consider `CC(C)c1cnc(N2CCN(C[C@@H](O)CN(C)C)CC2)nc1`, for which the “% Inhibition” value worked out at 8% and the Z score is -1.67.
In the same order, the values of `C[C@]1(c2ccc(S(C)(=O)=O)cc2)NC(=O)N(CC(=O)N2CCN(c3ncccn3)CC2)C1=O` are -8% and 1.22.
Take `Cc1cc(-c2nc(CC(N)=O)nn2CCO)cc2sc(N)nc12`: the “% Inhibition” value is reported as -3% and the Z score is reported as 0.37.
As to `O=C(Nc1ccnc(Oc2ccc(F)cc2F)c1)N1CCC[C@H]1CO`, the “% Inhibition” value is given as 5% and the Z score is given as -0.74.
As for `Cc1ccc(S(=O)(=O)CCc2cn(C)nn2)cc1`, the “% Inhibition” value is reported as -6% and the Z score came to 1.08.
The matching figures for `C#CCNC(=O)c1ncc(Br)cc1Br`: -15% and 1.36.
In the case of `C[C@@H](CNC(=O)c1nc2n(n1)-c1ccccc1S(=O)(=O)N2)c1ccccc1`, the “% Inhibition” value was determined as 3% and the Z score is -0.47.
Regarding `O=C(Nc1ccc2c(c1)C(=O)N(C[C@H]1CCCO1)C2=O)C(c1ccccc1)c1ccccc1`, the “% Inhibition” value is on record as -12% and the Z score is 1.5.
`FC(F)[C@H]1CCCN1CC1=CCCOC1`: the “% Inhibition” value is on record as -6% and the Z score is 0.74.
Regarding `O=C(CCc1ccsc1)N1CCCCC1`, the “% Inhibition” value is -10% and the Z score was 1.8.
Regarding `O=C(Nc1ccc2c(c1)OCCO2)N[C@H]1CCCc2occc21`, the “% Inhibition” value is -9% and the Z score was determined as 0.94.
In the case of `CCc1cccc(C)c1NC(=O)C(C)(C)CC`, the “% Inhibition” value is -13% and the Z score is 2.08.
As to `CN(Cc1ccc(-n2cccn2)cc1)C(=O)C[C@@H]1C[C@@H]2C=C[C@H]1C2`, the “% Inhibition” value is given as -13% and the Z score is listed as 1.47.
For the molecule `Cc1nc2nc(C3CCCCC3)nn2c(C)c1CC(=O)N1CCCCC1`, the “% Inhibition” value is listed as -15% and the Z score is on record as 1.74.
Turning to `CCCN1C(=O)c2c(C(=O)NCCc3cccs3)ncn2C[C@@]1(C)C(=O)NCCC(C)C`, the “% Inhibition” value was -9% and the Z score amounted to 1.43.
Regarding `Cc1nc(-c2ccc(-c3noc(-c4cncc(Br)c4)n3)cc2)cs1`, the “% Inhibition” value is reported as -20% and the Z score came out at 2.05.
Regarding `C[C@@H](C(=O)N1CCOCC1)N1CCN(Cc2ccc(-c3ccccc3F)s2)CC1`, the “% Inhibition” value is given as -6% and the Z score is recorded as 0.71.

One may read the % Inhibition as the relative decrease from the control value, in per cent.

For the origin of these results see ChEMBL document CHEMBL4888484, “Replenishing the malaria drug discovery pipeline: Screening and hit evaluation of the MMV Hit Generation Library 1 (HGL1) against asexual blood stage Plasmodium falciparum ,using a nano luciferase reporter read-out” (2022).
